Many values rest on one well or one pass, so single values are uncertain.
Key:
CHO-K1 [1] = test: hypodiploid nuclei frequency (% of nucleated events); higher = more hypodiploid events (aneugenic)
Protocol: (§1)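 Flow-cytometric in vitro micronucleus assay (Litron MicroFlow) in CHO-K1 cells in 96-well plates, 19 concentrations (4.5-200 µM, n=1 per concentration). Without S9, cells were exposed for 24 h and sampled at 48 h. With Aroclor 1254-induced rat liver S9, cells were exposed for 3-4 h and sampled at 27-28 h. Read-outs are %MN and %hypodiploid nuclei relative to nucleated events, and relative survival as the nuclei-to-bead ratio versus the 1% DMSO vehicle control (x100).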

CHO-K1 [2] = test: micronucleus frequency (% of nucleated events); higher = more micronuclei (genotoxic)
CHO-K1 [3] = test: relative survival (nuclei to bead ratio vs DMSO control) (% of vehicle control); higher = more surviving cells
Protocol: as §1
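Wherever hypodiploid nuclei frequency (% of nucleated events) is given: hypodiploid nuclei gated on a flow cytometer with 488 nm excitation after SYTOX Green staining, cultures at 37 °C, positive controls vinblastine without S9 and cyclophosphamide with S9.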
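Wherever micronucleus frequency (% of nucleated events) is given: cells lysed with nuclei stained by SYTOX Green, then micronucleus-gated events counted against nucleated events by flow cytometry with 488 nm excitation.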
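Wherever relative survival (nuclei to bead ratio vs DMSO control) is given: Lysed-cell nuclei stained with SYTOX Green and counted against counting beads by flow cytometry at 488 nm excitation, with vinblastine (no S9) and cyclophosphamide (plus S9) as positive controls.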

c1ccc2occc2c1 [2,3-Benzofuran]
Settings | hypodiploid nuclei frequency, CHO-K1 [1] [%] | micronucleus frequency, CHO-K1 [2] [%] | relative survival, CHO-K1 [3]
concentration: 4.55 (µM), S9 metabolic activation: with S9, exposure time: 3-4 hours | 0.44 | 2.18 | 138
concentration: 4.55 (µM), S9 metabolic activation: without S9, exposure time: 24 hours | 0.48 | 1.88 | 75.7
concentration: 5.69 (µM), S9 metabolic activation: with S9, exposure time: 3-4 hours | 0.3 | 1.78 | 101
concentration: 5.69 (µM), S9 metabolic activation: without S9, exposure time: 24 hours | 0.52 | 1.24 | 79.7
concentration: 7.11 (µM), S9 metabolic activation: with S9, exposure time: 3-4 hours | 0.28 | 1.5 | 102
concentration: 7.11 (µM), S9 metabolic activation: without S9, exposure time: 24 hours | 0.62 | 1.38 | 79.4
concentration: 8.88 (µM), S9 metabolic activation: with S9, exposure time: 3-4 hours | 0.12 | 1.64 | 93.1
concentration: 8.88 (µM), S9 metabolic activation: without S9, exposure time: 24 hours | 0.6 | 1.68 | 93.7
concentration: 11.1 (µM), S9 metabolic activation: with S9, exposure time: 3-4 hours | 0.22 | 1.86 | 99.6
concentration: 11.1 (µM), S9 metabolic activation: without S9, exposure time: 24 hours | 0.6 | 1.38 | 82.2
concentration: 13.9 (µM), S9 metabolic activation: with S9, exposure time: 3-4 hours | 0.22 | 1.88 | 114
concentration: 13.9 (µM), S9 metabolic activation: without S9, exposure time: 24 hours | 0.56 | 1.34 | 90.8
concentration: 17.4 (µM), S9 metabolic activation: with S9, exposure time: 3-4 hours | 0.26 | 2.42 | 103
concentration: 17.4 (µM), S9 metabolic activation: without S9, exposure time: 24 hours | 0.32 | 1.54 | 81.6
concentration: 21.7 (µM), S9 metabolic activation: with S9, exposure time: 3-4 hours | 0.36 | 3.08 | 113
concentration: 21.7 (µM), S9 metabolic activation: without S9, exposure time: 24 hours | 0.54 | 1.46 | 83.5
concentration: 27.1 (µM), S9 metabolic activation: with S9, exposure time: 3-4 hours | 2.56 | 0.9 | 138
concentration: 27.1 (µM), S9 metabolic activation: without S9, exposure time: 24 hours | 0.8 | 1.36 | 88.9
concentration: 33.9 (µM), S9 metabolic activation: with S9, exposure time: 3-4 hours | 0.26 | 1.64 | 198
concentration: 33.9 (µM), S9 metabolic activation: without S9, exposure time: 24 hours | 0.66 | 1.5 | 100
concentration: 42.4 (µM), S9 metabolic activation: with S9, exposure time: 3-4 hours | 0.16 | 1.08 | 158
concentration: 42.4 (µM), S9 metabolic activation: without S9, exposure time: 24 hours | 0.92 | 1.52 | 93.7
concentration: 53 (µM), S9 metabolic activation: with S9, exposure time: 3-4 hours | 0.18 | 1.76 | 136
concentration: 53 (µM), S9 metabolic activation: without S9, exposure time: 24 hours | 0.72 | 1.6 | 90
concentration: 66.2 (µM), S9 metabolic activation: with S9, exposure time: 3-4 hours | 0.14 | 1.72 | 126
concentration: 66.2 (µM), S9 metabolic activation: without S9, exposure time: 24 hours | 0.76 | 1.26 | 87.8
concentration: 82.7 (µM), S9 metabolic activation: with S9, exposure time: 3-4 hours | 0.28 | 1.18 | 106
concentration: 82.7 (µM), S9 metabolic activation: without S9, exposure time: 24 hours | 0.62 | 1.66 | 85.2
concentration: 103 (µM), S9 metabolic activation: with S9, exposure time: 3-4 hours | 0.12 | 1.4 | 137
concentration: 103 (µM), S9 metabolic activation: without S9, exposure time: 24 hours | 0.68 | 1.52 | 81.9
concentration: 129 (µM), S9 metabolic activation: with S9, exposure time: 3-4 hours | 0.34 | 1.76 | 147
concentration: 129 (µM), S9 metabolic activation: without S9, exposure time: 24 hours | 0.66 | 1.54 | 93.2
concentration: 162 (µM), S9 metabolic activation: with S9, exposure time: 3-4 hours | 0.26 | 2.06 | 120
concentration: 162 (µM), S9 metabolic activation: without S9, exposure time: 24 hours | 1.24 | 1.92 | 92
concentration: 202 (µM), S9 metabolic activation: with S9, exposure time: 3-4 hours | 0.24 | 1.94 | 127
concentration: 202 (µM), S9 metabolic activation: without S9, exposure time: 24 hours | 0.86 | 2.08 | 78.5

CCCCCCCCCCO [1-Decanol]
Settings | hypodiploid nuclei frequency, CHO-K1 [1] [%] | micronucleus frequency, CHO-K1 [2] [%] | relative survival, CHO-K1 [3]
concentration: 4.5 (µM), S9 metabolic activation: with S9, exposure time: 3-4 hours | 0.24 | 1.38 | 97.5
concentration: 4.5 (µM), S9 metabolic activation: without S9, exposure time: 24 hours | 0.88 | 1.82 | 101
concentration: 5.63 (µM), S9 metabolic activation: with S9, exposure time: 3-4 hours | 0.56 | 1.44 | 86.7
concentration: 5.63 (µM), S9 metabolic activation: without S9, exposure time: 24 hours | 0.92 | 2.18 | 114
concentration: 7.04 (µM), S9 metabolic activation: with S9, exposure time: 3-4 hours | 0.2 | 1.42 | 101
concentration: 7.04 (µM), S9 metabolic activation: without S9, exposure time: 24 hours | 0.8 | 1.72 | 95.6
concentration: 8.8 (µM), S9 metabolic activation: with S9, exposure time: 3-4 hours | 0.24 | 1.22 | 132
concentration: 8.8 (µM), S9 metabolic activation: without S9, exposure time: 24 hours | 0.7 | 1.82 | 124
concentration: 11 (µM), S9 metabolic activation: with S9, exposure time: 3-4 hours | 0.24 | 1.52 | 84
concentration: 11 (µM), S9 metabolic activation: without S9, exposure time: 24 hours | 0.78 | 2.44 | 128
concentration: 13.7 (µM), S9 metabolic activation: with S9, exposure time: 3-4 hours | 0.22 | 1.32 | 134
concentration: 13.7 (µM), S9 metabolic activation: without S9, exposure time: 24 hours | 0.44 | 2.28 | 139
concentration: 17.2 (µM), S9 metabolic activation: with S9, exposure time: 3-4 hours | 0.24 | 1.12 | 117
concentration: 17.2 (µM), S9 metabolic activation: without S9, exposure time: 24 hours | 0.54 | 2.3 | 149
concentration: 21.5 (µM), S9 metabolic activation: with S9, exposure time: 3-4 hours | 0.32 | 0.98 | 122
concentration: 21.5 (µM), S9 metabolic activation: without S9, exposure time: 24 hours | 0.9 | 2.42 | 130
concentration: 26.8 (µM), S9 metabolic activation: with S9, exposure time: 3-4 hours | 0.12 | 1.1 | 115
concentration: 26.8 (µM), S9 metabolic activation: without S9, exposure time: 24 hours | 0.54 | 1.48 | 119
concentration: 33.6 (µM), S9 metabolic activation: with S9, exposure time: 3-4 hours | 0.36 | 1.38 | 112
concentration: 33.6 (µM), S9 metabolic activation: without S9, exposure time: 24 hours | 0.74 | 1.64 | 130
concentration: 41.9 (µM), S9 metabolic activation: with S9, exposure time: 3-4 hours | 0.18 | 1.5 | 102
concentration: 41.9 (µM), S9 metabolic activation: without S9, exposure time: 24 hours | 0.98 | 2.26 | 115
concentration: 52.4 (µM), S9 metabolic activation: with S9, exposure time: 3-4 hours | 0.2 | 1.5 | 118
concentration: 52.4 (µM), S9 metabolic activation: without S9, exposure time: 24 hours | 0.7 | 2.14 | 124
concentration: 65.5 (µM), S9 metabolic activation: with S9, exposure time: 3-4 hours | 0.22 | 1.42 | 112
concentration: 65.5 (µM), S9 metabolic activation: without S9, exposure time: 24 hours | 1.08 | 2.52 | 120
concentration: 81.9 (µM), S9 metabolic activation: with S9, exposure time: 3-4 hours | 0.2 | 1.18 | 121
concentration: 81.9 (µM), S9 metabolic activation: without S9, exposure time: 24 hours | 0.9 | 1.94 | 134
concentration: 102 (µM), S9 metabolic activation: with S9, exposure time: 3-4 hours | 0.2 | 1.06 | 125
concentration: 102 (µM), S9 metabolic activation: without S9, exposure time: 24 hours | 0.96 | 1.88 | 112
concentration: 128 (µM), S9 metabolic activation: with S9, exposure time: 3-4 hours | 0.1 | 1.06 | 140
concentration: 128 (µM), S9 metabolic activation: without S9, exposure time: 24 hours | 1.22 | 2.58 | 110
concentration: 160 (µM), S9 metabolic activation: with S9, exposure time: 3-4 hours | 0.3 | 1.26 | 122
concentration: 160 (µM), S9 metabolic activation: without S9, exposure time: 24 hours | 1.04 | 2.76 | 99.2
concentration: 200 (µM), S9 metabolic activation: with S9, exposure time: 3-4 hours | 0.28 | 0.6 | 107
concentration: 200 (µM), S9 metabolic activation: without S9, exposure time: 24 hours | 1.46 | 2.56 | 140

From the supplement of paper PMC9151546
